In ChEMBL document CHEMBL1157539, “Thousands of chemical starting points for antimalarial lead identification” (Nature, 2010):
Over roughly 13,000 compounds, “IFI” has its median near 4; the highest 2% begin near 17. The list shows a part of the results.

assay: GSK_TCMDC: Inhibition Frequency Index (IFI). The number of non-kinase HTS assays where a compound showed > 50 % inhibition, expressed as a percentage of the number of such assays in which the compound was tested (-0 is zero); format: functional

Structure (SMILES)	IFI [%]
COC(=O)c1ccc(-c2ccc(C(=O)NCC3CCN(c4nc(N)c5cc(OC)c(OC)cc5n4)CC3)cc2)cc1	6.25
Cc1cccc(-n2nc(C)c3c2NC(=O)CC3C(=O)c2ccc(Cl)s2)c1 (stereo unspecified)	2.33
Clc1ccc2c(NCc3ccccc3)ccnc2c1	8.33
Cc1cc(OCCN2CCCCC2)ccc1NC(=O)c1cccc2c(=O)n(Cc3ccc(Cl)cc3)cnc12	12.2
CCOc1ccc(-c2nonc2NC(=O)c2ccccc2Cl)cc1OCC	1.45
CN(C)C(=O)O[C@@H]1CN[C@H](C#Cc2cc3ncnc(Nc4ccc5c(cnn5Cc5cccc(F)c5)c4)c3s2)C1	5.76
Fc1ccccc1CNc1ncc(-c2ccsc2)c(-c2nccs2)n1	5.81
C[C@@]12C[C@@H](Nc3nc(NCCc4ccc(O)cc4)nc(N4CCNCC4)n3)C[C@@H](C1)c1cccc(Cl)c1O2	20.9
Cn1cncc1-c1cc2c(Nc3ccc(OCc4ccccc4)cc3)ncnc2cn1	3.7
O=C(/C=C/c1ccc(Cl)c(Cl)c1)N1CCC(CCN2CCC(c3c[nH]c4ccccc34)CC2)CC1	4.61
COCCNCc1nc(-c2ccc3c(Nc4ccc(Cl)cc4F)ccnc3c2)cs1	5.26
CN1CCN(c2ccnc3ccc(NC(=O)Cc4cccc(Cl)c4Cl)cc23)CC1	2.24
CN(C)C1CCN(CC#Cc2cc3ncnc(Nc4ccc(OCc5cccc(F)c5)c(Cl)c4)c3s2)CC1	9.52
CCNc1cc(C)nc(Nc2ccc(NC(=O)c3ccco3)cc2)n1	9.8
OC1(c2ccccc2)CCN(Cc2cccc(-c3c[nH]c4nc(NC5CCCC5)ncc34)c2)C1 (stereo unspecified)	8.33
COc1cccc2c(N/N=C/c3ccccc3[N+](=O)[O-])ccnc12	3.62
COc1c(CN2CCCC2)cccc1-c1cc2c(-c3ccc(C(=O)O)c(C(C)C)c3)ccnc2[nH]1	-0
Cc1noc(=O)c2ccc(NC(=O)C(O)(CSc3ccccc3)CC(C)C)cc12 (stereo unspecified)	1.85
CC(C)=CCc1c(-c2ccc(O)cc2O)oc2c3c(cc(O)c2c1=O)OC(C)(C)C=C3	9.09

Structure (SMILES)	IFI [%]
Fc1ccc2[nH]c(-c3cccc(-c4cccc(CNCCc5ccncc5)c4)c3)nc2c1	5.05
COCCn1c(-c2nc(-c3ccc(F)cc3)cnc2N)nc2ccccc21	1.42
COc1ccc(CCN(C)CCOc2ccc(NC(=O)c3cc(SC)cc4c(=O)c5ccccc5[nH]c34)cc2)cc1OC	6.14
Cc1sc2ncnc(Sc3nc4ccccc4[nH]3)c2c1C	0.75
O=C(Nc1ccc(C(F)(F)F)cc1)NC1CCN(c2ccnc3ccccc23)CC1	16.2
Cc1cccc2nc(-c3ccc(-c4ccc(NC(=O)Nc5ccc(Cl)c(Cl)c5)cc4)cc3)[nH]c12	3.03
NC1CCCN(Cc2cccc(-c3ccc(-c4nc5cc(C(F)(F)F)ccc5[nH]4)cc3)c2)C1 (stereo unspecified)	5.63
CC(C)C[C@H](NC(=O)c1cc2ccccc2s1)C(=O)N[C@H]1CCN(Cc2ccc(OCCN3CCNCC3)c3ccccc23)C1	3.45
CN1CCN(c2ccc(Nc3ncc(Cl)c(Nc4cccnc4C(N)=O)n3)cc2)CC1	16.2
COc1cc2c(Nc3ccc(NC(=O)c4ccccc4)cc3)ncnc2cc1OCCCN1CCOCC1	5.36
Cn1cncc1C(=O)Nc1ccc(-c2cccc(-c3nc4cc(C(F)(F)F)ccc4[nH]3)c2)cc1	2.68
Nc1nc(N)c2c(ccc3c2ccn3C2C=CCCC2)n1 (stereo unspecified)	2.14
Cn1nccc1C(=O)NCCNCc1ccc(-c2cccc(-c3nc4cc(C(F)(F)F)ccc4[nH]3)c2)cc1	4.81
COc1ccc2c(=O)ccn(CCN3CCC(NCc4ccc5c(n4)NC(=O)CS5)CC3)c2c1	2.17
O=C(Nc1ccc(C(F)(F)F)cc1)c1cc(Br)cnc1NCCCn1ccnc1	1.67
CN(C)CC1c2[nH]c3ccccc3c2CCN1C(=O)Nc1ccc(Cl)c(Cl)c1 (stereo unspecified)	6.38
COc1ccc(NC(C)C(=O)Nc2ccc(Br)cc2)cc1S(=O)(=O)N1CCCCC1 (stereo unspecified)	8.7
Fc1ccc2[nH]c(-c3ccc(-c4ccc(CNCCc5cccnc5)cc4)s3)nc2c1	7.95
Cc1nnsc1C(=O)Nc1ccc(-c2cccc(-c3nc4cc(C(F)(F)F)ccc4[nH]3)c2)cc1	7.96

Structure (SMILES)	IFI [%]
Cc1cccc2c3c([nH]c12)C1(CCN(CCc2ccccc2)CC1)NC(C(=O)NCc1ccccc1)C3 (stereo unspecified)	4.55
O=C(NCCCN1CCN(c2cccc(Cl)c2)CC1)c1ccc(-c2nc3cc(Cl)c(Cl)cc3[nH]2)cc1	0.74
N#Cc1ccc(N2CCN(Cc3ccc(-c4ccc(-c5nc6cc(F)ccc6[nH]5)s4)cc3)CC2)nc1	2.97
COc1cc(-c2nc(-c3ccncc3)c(-c3ccc4c(c3)CCC4=NO)[nH]2)ccc1OCCN1CCCCC1	3.68
c1ccc2cc3c(Nc4ccc(N5CCCCC5)cc4)ccnc3cc2c1	0.81
CCCCN1CC[C@@H](CCC(O)c2cc(OCCC)nc3ccc(OC)cc23)[C@@H](CC)C1 (stereo partly specified)	5
COc1cc(F)c2ncc(Cl)c(CCN3CCC(NCc4ccc5c(c4)OCCO5)CC3)c2c1	3.79
CN1CCN(CCCN(Cc2ccc(-c3cccc(CNCc4ccc5c(c4)OCO5)c3)cc2)C(=O)CCC2CCCC2)CC1	4.32
CCN(CC)CCNC(=O)c1ccc(NC(=O)c2cn(-c3ccccc3)nc2-c2cccs2)cc1	5.76
CCCCNCc1ccc(-c2nc(CN(Cc3ccc(Cl)c(Cl)c3)S(=O)(=O)c3ccc(NC(C)=O)cc3)cs2)cc1	5.51
O=C(CCOc1ccccc1)NCC1CCCO1 (stereo unspecified)	-0
O=C(NC(c1ccccc1)c1ccccc1)C(c1cc2ccccc2o1)N1CCN(C(c2ccccc2)c2ccccc2)CC1 (stereo unspecified)	1.46
Oc1ccc2[nH]c(-c3cccc(F)c3)nc2c1CN1CCCC1	0.96
CNc1nc(N/N=C/c2cc([N+](=O)[O-])c(Cl)cc2Cl)nc(Nc2cccc(C(F)(F)F)c2)n1	2.29
O=C(Cc1cc(F)cc(F)c1)NC1CCN(c2ccnc3cc(Cl)ccc23)C1 (stereo unspecified)	3.08
O=C(Nc1ccc(SC(F)(F)F)cc1)Nc1ccnc2ccccc12	9.29
COc1cc2s/c(=N\C(=O)c3cccc([N+](=O)[O-])c3)n(C)c2cc1OC	1.72
NC1=NC(c2ccccc2)(c2ccccc2)C(=O)N1CCCCc1ccccn1	3.51
